Data published in PMC10076392, “Structure of the heterotrimeric membrane protein complex FtsB-FtsL-FtsQ of the bacterial divisome” (Nature Communications, 2023).

T1: FtsB-FtsL heterodimer (E. coli strain K12, UniProt P0A6S5 1-103; P0AEN4 1-121, S3N | R4K | V5L)
T1 construct: FtsB, E. coli strain K12, full length; FtsL, E. coli strain K12, full length, with S3N, R4K, V5L; also called FtsBL; source: E. coli C43, co-expressed with FtsQ from pRSF-FtsBLQ; solubilised membranes, Ni-NTA, Superdex-200; not shown: His6 (that it sits on FtsB is inferred from the cloning order in pRSFDuet-1), N-terminal, kept
T1 sequence (looked up) 1: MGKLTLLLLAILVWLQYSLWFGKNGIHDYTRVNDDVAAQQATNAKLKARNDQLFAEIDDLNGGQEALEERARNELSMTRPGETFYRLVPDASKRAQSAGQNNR
T1 sequence (looked up) 2: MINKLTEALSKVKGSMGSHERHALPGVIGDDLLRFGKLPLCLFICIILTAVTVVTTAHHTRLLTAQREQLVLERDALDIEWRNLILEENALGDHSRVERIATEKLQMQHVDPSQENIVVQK

B1: FtsBLQ^T37W mutant complex (complex)
chain 1: T1 sequence (looked up) 1
chain 2: T1 sequence (looked up) 2
chain 3: [about 300 residues with changes omitted]
notes: FtsB, E. coli strain K12, full length; FtsL, E. coli strain K12, full length, with S3N, R4K, V5L; FtsQ, E. coli strain K12, full length; source: E. coli C43, co-expressed, purified (Ni-NTA, Superdex-200) in Cymal-5; copies: + +
B2: FtsQ^Y248W (natural protein)
chain: not shown
notes: FtsQ, E. coli strain K12, full length; source: E. coli C43, co-expressed with FtsB and FtsL; solubilised membranes, Ni-NTA

Columns and labels:
[1] = target: the molecule itself; assay: native gel or EMSA; purified complex in 200 mM NaCl, 20 mM HEPES pH8.0, 0.2% Cymal-5; NativePAGE 4-16% Bis-Tris with G-250, 150 V, 120 min, on ice
FtsB-FtsL heterodimer = target: T1, FtsB-FtsL heterodimer; assay: co-purification (Ni-NTA, SDS-PAGE); FtsB, FtsL and FtsQ co-expressed in E. coli C43; membranes solubilised in detergent; Ni-NTA by the His-tag; ratio of FtsQ over FtsBL from SDS-PAGE band intensities, wild type defined as 100%, three biological replicates; conditions: partners not purified

| Binder | binding result [1] | loss of FtsQ association (ratio of FtsQ over FtsBL, wild type = 100%) (FtsB-FtsL heterodimer) [%] |
| --- | --- | --- |
| B1 | binds |  |
| B2 |  | 79 |
